In a collection of fitness landscapes (doi:10.1016/j.celrep.2020.107928):
Over roughly 81,000 sequences, “one-hybrid fitness for binding parS DNA” has its median near -0.17; the highest 2% begin near 0.51. This is one part of the list.

B1: Caulobacter ParB omega fusion; a variant is named by its letters at X, in order, B8GW30 (parent)
chain: MESVVVGEPGMSEGRRGLGRGLSALLGEVDAAPAQAPGEQLGGSREAPIEILQRNPDQPRRTFREEDLEDLSNSIREKGVLQPILVRPSPDTAGEYQIVAGERAWRAAQRAGLKTVPIMVRELDDLAVLEIGIIENVQRADLNVLEEALSYKVLMEKFERTQENIAQTIGKSXSHVANXMRLLXLPDEVQSYLVSGELTAXHARAIAAAADPVALAKQIIEGGLSVRETEALARKAPNLSAGKSKGGRPPRVKDTDTQALESDLSSVLGLDVSIDHRGSTGTLTITYATLEQLDDLCNRLTRGI

Variants of: B1
Assay: one-hybrid fitness for binding parS DNA (scaled: cognate 1, non-cognate 0); higher = stronger binding
Conditions: with parS DNA site
How it was run: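 Fitness is the rescaled log change in variant-to-wild-type read ratio, measured by Illumina sequencing of plasmids before and after bacterial one-hybrid selection. The scale puts cognate at 1 and non-cognate at 0. Selection of Caulobacter ParB libraries, four specificity codons randomised, took place in E. coli USO with a HIS3 reporter, site 19 bp from the promoter, over 48 hours at 37°C on M9-minus-histidine with 0.1 mM IPTG and 5 mM 3-AT.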

Variant	one-hybrid fitness for binding parS DNA
LSDR	≤ 0.2
TPRF	≤ 0.2
EVKG	≤ 0.2
RTFL	≤ 0.2
YHCR	≤ 0.2
RLPA	0.376
TAMQ	≤ 0.2
VTVV	≤ 0.2
VKTK	≤ 0.2
TFAA	≤ 0.2
DDCR	≤ 0.2
YPVI	≤ 0.2
IIHY	≤ 0.2
TRVM	≤ 0.2
PNRR	≤ 0.2
GNKN	≤ 0.2
DAGR	≤ 0.2
DADC	≤ 0.2
FRKP	≤ 0.2
LQVT	≤ 0.2
QLPG	≤ 0.2
QTMW	≤ 0.2
HTRG	≤ 0.2
AHAA	≤ 0.2
IGSR	≤ 0.2
QLRK	≤ 0.2

Variant	one-hybrid fitness for binding parS DNA
FCLS	≤ 0.2
KSEV	≤ 0.2
CRKN	≤ 0.2
CAHS	≤ 0.2
HHHL	≤ 0.2
KSGC	≤ 0.2
GAMM	≤ 0.2
MNLM	≤ 0.2
NDDR	≤ 0.2
NWYC	≤ 0.2
INHR	≤ 0.2
TARA	≤ 0.2
NCLG	≤ 0.2
NQCC	≤ 0.2
DARL	≤ 0.2
WYCF	≤ 0.2
HQRE	≤ 0.2
QGCV	≤ 0.2
GCRS	≤ 0.2
QKMM	≤ 0.2
HAHI	≤ 0.2
WILQ	≤ 0.2
AIWR	≤ 0.2
PQSM	≤ 0.2
DDCW	≤ 0.2
GHAN	≤ 0.2

Variant	one-hybrid fitness for binding parS DNA
APKL	≤ 0.2
CCMS	≤ 0.2
ESHT	≤ 0.2
SMCV	≤ 0.2
TYKY	≤ 0.2
HMIG	≤ 0.2
QIVF	≤ 0.2
HKQG	≤ 0.2
AHTV	≤ 0.2
RWDS	0.76
RYGA	0.539
QLEP	≤ 0.2
TRWW	≤ 0.2
APWM	≤ 0.2
KPSK	≤ 0.2
YLIT	≤ 0.2
ARHR	≤ 0.2
HAFT	≤ 0.2
KTIR	≤ 0.2
QKWW	≤ 0.2
RMME	≤ 0.2
SLSA	≤ 0.2
CVST	≤ 0.2
LQLV	≤ 0.2
QDQD	≤ 0.2
GGSC	≤ 0.2

Variant	one-hybrid fitness for binding parS DNA
WIVR	≤ 0.2
MSTN	≤ 0.2
QSHY	≤ 0.2
RVQC	0.983
RFLA	0.533
DSKV	≤ 0.2
AMFG	≤ 0.2
RACK	≤ 0.2
SAIG	≤ 0.2
VTWW	≤ 0.2
QELT	≤ 0.2
WSTS	≤ 0.2
LTRH	≤ 0.2
AQGG	≤ 0.2
LDNV	≤ 0.2
TERC	≤ 0.2
ADTW	≤ 0.2
YVIV	≤ 0.2
PRPD	≤ 0.2
YPCT	≤ 0.2
SHRC	≤ 0.2
QRNN	≤ 0.2
ERNG	≤ 0.2
QMWI	≤ 0.2
MNCR	≤ 0.2
ATLA	≤ 0.2

Variant	one-hybrid fitness for binding parS DNA
YSMS	≤ 0.2
RART	0.836
ADKL	≤ 0.2
QNAF	≤ 0.2
HNLV	≤ 0.2
DEHC	≤ 0.2
MTSE	≤ 0.2
LLGH	≤ 0.2
SRHE	≤ 0.2
QEQT	≤ 0.2
KPVK	≤ 0.2
RPLR	≤ 0.2
PFYT	≤ 0.2
CCPV	≤ 0.2
NSPN	≤ 0.2
WYDR	≤ 0.2
SSKC	≤ 0.2
PTAP	≤ 0.2
CFGR	≤ 0.2
QMLA	≤ 0.2
DITK	≤ 0.2
LKMT	≤ 0.2
KGNF	≤ 0.2
LHQP	≤ 0.2
RQVY	0.375
QATK	≤ 0.2

Variant	one-hybrid fitness for binding parS DNA
RTKG	0.872
RMTM	0.326
TLMC	≤ 0.2
GNLC	≤ 0.2
FDLT	≤ 0.2
CTMM	≤ 0.2
DHRW	≤ 0.2
TENN	≤ 0.2
GTDC	≤ 0.2
NVIT	≤ 0.2
NCVL	≤ 0.2
MRHR	≤ 0.2
RCWV	≤ 0.2
DQAG	≤ 0.2
TSGL	≤ 0.2
PGYP	≤ 0.2
RMIS	0.997
IDSC	≤ 0.2
TCNM	≤ 0.2
WGGV	≤ 0.2
ITYC	≤ 0.2
YTTM	≤ 0.2
ASIF	≤ 0.2
